Source: the supplement of paper PMC3334620
Whole data set: some 33,000 sequences, median “E-score (-0.5 to 0.5)” near -0.021, cut for the highest 2% near 0.32. Some of the results follow.

target: T1, Zap1 (UniProt P47043); experiment: PBM E-score (8-mer binding enrichment) (E-score (-0.5 to 0.5)); higher = stronger / more preferred TF binding; most listed sequences are background and not binding sites; settings: protein concentration: 200 nM; construct: GST-full length
T1 sequence: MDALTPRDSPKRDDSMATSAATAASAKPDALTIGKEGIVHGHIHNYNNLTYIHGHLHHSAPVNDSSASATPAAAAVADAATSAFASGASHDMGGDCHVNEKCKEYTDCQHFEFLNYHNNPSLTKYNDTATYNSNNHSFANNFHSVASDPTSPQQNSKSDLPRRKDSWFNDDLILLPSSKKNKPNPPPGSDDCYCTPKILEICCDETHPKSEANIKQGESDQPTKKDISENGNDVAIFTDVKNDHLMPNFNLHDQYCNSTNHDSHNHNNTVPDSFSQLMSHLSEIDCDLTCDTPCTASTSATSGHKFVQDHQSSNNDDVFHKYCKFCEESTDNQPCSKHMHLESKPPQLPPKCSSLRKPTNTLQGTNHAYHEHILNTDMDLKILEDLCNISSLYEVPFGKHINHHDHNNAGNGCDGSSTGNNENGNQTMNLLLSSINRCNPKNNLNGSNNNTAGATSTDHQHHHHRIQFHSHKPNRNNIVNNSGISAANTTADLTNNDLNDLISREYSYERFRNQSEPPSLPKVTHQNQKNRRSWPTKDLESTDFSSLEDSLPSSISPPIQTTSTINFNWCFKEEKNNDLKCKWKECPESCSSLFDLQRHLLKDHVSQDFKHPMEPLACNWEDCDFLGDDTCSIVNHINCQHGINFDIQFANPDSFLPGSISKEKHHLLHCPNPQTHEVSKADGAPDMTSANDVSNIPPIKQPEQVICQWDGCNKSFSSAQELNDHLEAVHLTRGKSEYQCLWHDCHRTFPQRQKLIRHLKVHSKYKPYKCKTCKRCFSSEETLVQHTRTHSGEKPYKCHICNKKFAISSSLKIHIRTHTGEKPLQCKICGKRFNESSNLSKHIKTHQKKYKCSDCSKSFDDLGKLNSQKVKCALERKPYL
Summary of the method: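 GST-tagged yeast TFs (full-length or DNA-binding domain) were made by PURExpress in vitro transcription/translation and applied at about 100-200 nM to universal all-10-mer Agilent arrays. The arrays were made double-stranded by primer extension, on fresh or once-stripped slides. Bound protein was detected with fluorescent anti-GST, and scans were normalised with masliner. Each ungapped eight-base word, pooled with its reverse complement, received an E-score (modified Wilcoxon-Mann-Whitney statistic) from the Universal PBM Analysis Suite.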

Row | Sequence | PBM E-score
1 | GGACCATA | 0.0827
2 | GGGGCTTA | -0.25
3 | AGGGACAC | 0.253
4 | CAGTCTGC | -0.174
5 | ACTTTAGA | 0.0114
6 | ACGATAGC | -0.093
7 | AAACACCG | 0.15
8 | AGCGACGC | -0.162
9 | ACTTCACG | -0.208
10 | ACGCATTC | -0.126
11 | CACAGATA | -0.0532
12 | GACAGCGA | -0.275
13 | CTTAATTC | 0.165
14 | GGATCACC | 0.101
15 | GTACGACA | -0.0101
16 | GGTTATTA | 0.438
17 | ATCACCCA | 0.208
18 | ACCTATTG | 0.26
19 | GGAATCCC | -0.0713
20 | GCGGCTCC | -0.158
21 | AGCACCCG | 0.125
22 | CCGTGGCA | -0.00393
23 | ACGAATAT | 0.0884
24 | CGCTTAGC | -0.239
25 | AGGTAAAC | 0.139

Row | Sequence | PBM E-score
26 | AGCTCTAT | -0.172
27 | CGTGCAAG | -0.129
28 | CATATCCG | 0.033
29 | GAATCCAC | -0.00648
30 | CAACGTGC | -0.0974
31 | CTCCGTCC | -0.268
32 | AGCACCAT | -0.0576
33 | ATATAGCG | -0.0177
34 | AACGGCTC | -0.244
35 | AGCTGTCA | -0.0561
36 | CGCCTTAG | -0.293
37 | CTCCACTC | -0.232
38 | CAGAAACC | 0.22
39 | CGTTCGGA | -0.0861
40 | CACAGGGA | -0.163
41 | AACGCCCA | -0.0372
42 | CATTCACC | 0.0314
43 | CGTGCGTC | -0.0401
44 | CAAGGCTG | 0.071
45 | GGCAGTCA | -0.139
46 | CAGGAAAG | -0.21
47 | CCTAAAAG | 0.0509
48 | AACGTACA | 0.0402
49 | CGGCCGGC | -0.0891
50 | GGTAACTA | 0.313

Row | Sequence | PBM E-score
51 | ACTGTGGC | -0.107
52 | ACGCGTGA | 0.152
53 | GAGGAGCC | -0.212
54 | AAAGATGT | -0.0915
55 | CCTAGCCC | -0.151
56 | CGTTGATC | 0.0689
57 | CACAGGCA | -0.244
58 | AACGGAGA | -0.0507
59 | ATATCGCG | 0.126
60 | GAGTTCGC | -0.134
61 | CAATCTAA | -0.0414
62 | AGTGTATA | -0.149
63 | GCTAGTAA | 0.0477
64 | ACTCCAGG | 0.0527
65 | AGGTTCAC | 0.108
66 | CGCGTGAG | 0.0356
67 | AGCGAGCT | 0.0182
68 | GACCGGTA | 0.105
69 | AAACTACT | 0.0804
70 | GGGTCATA | 0.432
71 | AACACGGG | -0.0877
72 | ACAAATCC | 0.0813
73 | CCGTAAGC | 0.0194
74 | GTGGTCGA | -0.116
75 | AGACGCAC | -0.2

Row | Sequence | PBM E-score
76 | AGATCCTA | -0.131
77 | CCTCGCCA | -0.241
78 | GGCGGCTA | -0.0211
79 | TTCGAGAA | 0.0472
80 | CACCTTGA | 0.179
81 | ACCCACGC | 0.199
82 | CCACGTGG | -0.0253
83 | GACTGGCC | -0.254
84 | CCACGTGC | -0.0778
85 | AAGACTAC | -0.0648
86 | GCATCAAA | 0.169
87 | ATAGACTA | 0.0763
88 | CCCACTAC | 0.0184
89 | AAGCAAGT | -0.0851
90 | CATCTACA | -0.0824
91 | ATCCAAGC | -0.2
92 | CCGAGTCG | -0.139
93 | AACCTGCG | 0.14
94 | TAACGGCA | -0.0239
95 | ACTCATGC | -0.147
96 | ACTCTTAA | 0.0408
97 | ACACTCAC | -0.0309
98 | CGCTTTCC | -0.107
99 | CAGCCAAA | 0.149
100 | AAGTGGTG | -0.102

Row | Sequence | PBM E-score
101 | ACAGGTCT | -0.121
102 | CATAAACA | 0.17
103 | GTGGAAAC | 0.102
104 | GAGTACAC | -0.0741
105 | CTAGGTTA | 0.42
106 | CGTTTAGC | -0.122
107 | ATTAGCGG | -0.0245
108 | AAATTGAG | 0.0218
109 | AACCCTTG | 0.444
110 | ATCAGGCG | -0.157
111 | ATAACCGC | 0.459
112 | AATGCACA | 0.0382
113 | CATCGGAA | 0.0109
114 | AGCTAATA | -0.0477
115 | CGAATGCC | -0.267
116 | CCTCATCG | -0.0583
117 | ATGCCGCG | -0.0351
118 | CTTTAGTC | -0.161
119 | GAGGTAGA | -0.247
120 | GCCAGTAC | 0.0642
121 | CTAGGGGC | -0.223
122 | CTTAAACA | 0.128
123 | CTAGACTA | -0.0786
124 | GACTGGAC | -0.168
125 | ACTACTGG | -0.128

Row | Sequence | PBM E-score
126 | ATCGAGGG | 0.0179
127 | CTGTCAGC | -0.211
128 | CGCAACCC | 0.379
129 | GATGCGGA | -0.0728
130 | CGTCCGCC | -0.166
131 | GGGTGCAC | -0.0872
132 | CCAGATCA | 0.0889
133 | CCTGGAAC | -0.0392
134 | ATAATACC | 0.188
135 | GTCTCTCA | -0.0344
136 | AGGTCAAC | 0.118
137 | CCTGGCCA | -0.056
138 | GCTAGAAC | -0.03
139 | ATCGTCGA | -0.214
140 | GGCTGTAC | -0.31
141 | ATCGACCC | 0.0733
142 | GGGCTGCA | -0.2
143 | AAGGATGG | -0.0996
144 | GGTAATGA | 0.255
145 | CAAATTAG | 0.209
146 | AAATGTTA | 0.0592
147 | ACTGTCCC | -0.163
148 | AAGAGGGC | -0.091
149 | TAGTCGCA | -0.0884
150 | CGAATGCG | -0.0632

Row | Sequence | PBM E-score
151 | CTCAGCCA | -0.13
152 | TAATAAAA | 0.266
153 | GCCAAAAC | 0.0209
154 | CACACCCG | -0.0127
155 | CAGGGCCA | -0.0969
156 | CTGATTTC | -0.112
157 | ACGATCCT | -0.175
158 | AACGCTAT | -0.132
159 | CAATATTC | -0.00773
160 | CCAGGAAC | -0.243
161 | ATGCGGGG | -0.137
162 | CTCATTTA | -0.0145
163 | CAGGATAA | 0.122
164 | AGGTCCAA | 0.0416
165 | AACGGATT | 0.01
166 | TCAAGGCA | -0.00733
167 | GCAATGGC | -0.203
168 | AGCCAGAA | -0.0361
169 | CCTCGGAG | 0.0286
170 | AGACAGTC | -0.252
171 | AACTGAAG | 0.0753
172 | CTCGGGAC | -0.0983
